# Laboratory results from the supplement of paper PMC4166925.
# ± gives the standard deviation of the averaged measurements. In all, about 33,000 sequences were measured (“E-score (dimensionless, -0.5 to 0.5)”: median about -0.049, highest 2% from about 0.37 on). The list shows a part of the results.
# Test system: T1, PmTbr T-box DNA-binding domain (GST fusion)
# T1 sequence: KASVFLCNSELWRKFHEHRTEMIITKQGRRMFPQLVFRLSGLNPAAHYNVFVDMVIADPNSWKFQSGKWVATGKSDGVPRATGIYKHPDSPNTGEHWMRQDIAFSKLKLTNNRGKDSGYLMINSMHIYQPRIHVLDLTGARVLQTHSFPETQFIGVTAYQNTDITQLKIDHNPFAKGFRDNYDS
# Assay: PBM E-score of 8-mer (E-score (dimensionless, -0.5 to 0.5)); Tbr is Tbrain of the sea star Patiria miniata (Pm) or the sea urchin Strongylocentrotus purpuratus (Sp); higher = stronger binding preference; most listed sequences are background and not binding sites
# Settings: the construct has about 5 more residues each side
# In short: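 GST-fused Tbr T-box DNA-binding domains (the whole T-box plus about five flanking residues) were expressed in BL21 E. coli at 20 °C and purified by glutathione affinity chromatography. Universal Agilent oligonucleotide arrays were made double-stranded by primer extension, incubated with 200 nM protein in PBS (pH 7.5), then scanned and quantified. Every ungapped 8-mer was scored from probe intensities. The Universal PBM Analysis Suite gave each word an enrichment E-score, averaged over duplicate arrays.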
row,Sequence,PBM E-score of 8-mer
1,ATTCGATA,0.111 ± 0.081
2,ACATTTCA,0.125 ± 0.0075
3,ATAGTTCA,-0.0384 ± 0.017
4,ATAATGCA,0.00791 ± 0.1
5,AATCCCGA,-0.192 ± 0.058
6,GCCGGAAC,-0.0937 ± 0.0089
7,ACACCCGG,0.3462 ± 0.00071
8,AGTTGCAT,-0.106 ± 0.042
9,CGTGGAAA,-0.0945 ± 0.027
10,ACAGCAAA,-0.0639 ± 0.066
11,CTTGCTCA,0.0359 ± 0.0032
12,ACATACAT,-0.173 ± 0.028
13,AGAGCATA,-0.258 ± 0.012
14,CGCAGCAC,0.0184 ± 0.054
15,AATATGGG,-0.0411 ± 0.027
16,GCTCGGAC,-0.229 ± 0.01
17,ATTCTTGC,-0.174 ± 0.05
18,CGTCTGCC,0.00703 ± 0.083
19,GTCCACAC,0.346 ± 0.0095
20,CTGGAATA,-0.045 ± 0.038
21,GATATATC,0.101 ± 0.037
22,ACTGAGTA,-0.146 ± 0.05

row,Sequence,PBM E-score of 8-mer
1,AAGACCAG,0.0377 ± 0.13
2,AACTACGC,0.0192 ± 0.043
3,CGTTTAGA,-0.165 ± 0.034
4,GAGCGCCA,0.0605 ± 0.028
5,ACGGCGCG,0.23584 ± 0.00022
6,ACTCCATA,0.0894 ± 0.0061
7,CGTCGACC,-0.0661 ± 0.0047
8,ATAGCCGC,-0.0519 ± 0.16
9,CACCGCAG,-0.0173 ± 0.065
10,GTAGCAAC,0.2223 ± 0.00093
11,CACGTTGG,0.261 ± 0.0042
12,AACAGGCA,-0.114 ± 0.083
13,CTTACACA,0.277 ± 0.012
14,GTCACCCA,0.259 ± 0.056
15,AGTAAAGA,-0.136 ± 0.037
16,AATTTATC,0.0791 ± 0.073
17,ACCTGGAC,0.0878 ± 0.0041
18,CTAGATAC,-0.196 ± 0.018
19,AATCGGAG,-0.164 ± 0.0056
20,AAAACTAT,-0.0637 ± 0.068
21,CAAGACAA,0.074 ± 0.057
22,GGGTGCCA,0.426 ± 0.011

row,Sequence,PBM E-score of 8-mer
1,TGCTCCCA,-0.142 ± 0.01
2,AGCCACCG,-0.0981 ± 0.014
3,CTAGGTCC,-0.13 ± 0.071
4,GAACACCC,0.1762 ± 0.00083
5,GCGACAGA,0.284 ± 0.01
6,GCAGCTGA,0.108 ± 0.055
7,AATCTTTG,-0.0184 ± 0.015
8,CTACAAAA,-0.0644 ± 0.12
9,TTGTACAA,-0.0404 ± 0.039
10,AGGTAAAA,0.0141 ± 0.096
11,GAAGTCGA,0.0477 ± 0.01
12,GATTCCCC,0.0772 ± 0.026
13,AACTGTTG,0.242 ± 0.019
14,ATGGTTTG,-0.193 ± 0.0089
15,ATAGCAGA,-0.0487 ± 0.06
16,AAGCCGCA,-0.0359 ± 0.11
17,GCTCTCAA,-0.0325 ± 0.086
18,AGCCAAGC,-0.298 ± 0.076
19,GGGGACTA,-0.238 ± 0.0003
20,CTGGTACA,-0.107 ± 0.022
21,GAAAGGCC,-0.14 ± 0.095
22,GGGAACCA,-0.241 ± 0.017

row,Sequence,PBM E-score of 8-mer
1,CAAAACAG,0.0766 ± 0.048
2,CCTTACTC,-0.235 ± 0.019
3,GCGGTGGA,-0.182 ± 0.0027
4,AGGCGGAT,-0.128 ± 0.016
5,CACTTCTC,0.315 ± 0.008
6,ATTGCGAC,0.124 ± 0.017
7,CGGCTGAG,-0.1 ± 0.073
8,CTCCCGAG,-0.136 ± 0.099
9,AGCTTATC,-0.0151 ± 0.013
10,CGAGTGCA,-0.0272 ± 0.087
11,CTCGTAAG,-0.0899 ± 0.055
12,GCATGTAC,-0.214 ± 0.029
13,GGTGAGCA,0.212 ± 0.044
14,CATAGCAA,-0.144 ± 0.047
15,ATATTAAA,-0.0562 ± 0.061
16,CGGTACCA,-0.0668 ± 0.077
17,CTTTACGA,-0.265 ± 0.053
18,TGTTAAAA,0.354 ± 0.043
19,CCTGAAGC,-0.102 ± 0.026
20,AAAAAGGA,-0.122 ± 0.064
21,AAGTCCTG,-0.111 ± 0.013
22,TAAGGTGA,0.3578 ± 0.00067

row,Sequence,PBM E-score of 8-mer
1,ACGCAGGC,-0.0679 ± 0.022
2,CGAAGTAG,0.0743 ± 0.0042
3,CCTAGGCA,-0.0464 ± 0.077
4,CAGTAAAC,-0.125 ± 0.0037
5,ACGTTAGC,0.216 ± 0.034
6,ATGTACTG,-0.142 ± 0.013
7,CTCAGGTA,-0.211 ± 0.05
8,ACGGCTCC,0.0346 ± 0.0058
9,ACAACGAC,0.00975 ± 0.016
10,GAGGCCTC,-0.138 ± 0.035
11,ATTAATAC,-0.0944 ± 0.11
12,CGAGTTAG,-0.0558 ± 0.052
13,GACAGGGA,-0.0314 ± 0.0093
14,AAAGCGTT,0.0875 ± 0.015
15,CCCGTAGG,-0.1 ± 0.044
16,CTACACAA,-0.0889 ± 0.029
17,GGCACCCA,0.217 ± 0.018
18,ATAGCCGG,-0.21 ± 0.0076
19,CCTCCATA,-0.11 ± 0.033
20,CGCTCCCA,-0.0363 ± 0.045
21,CCTAACTA,0.0326 ± 0.035
